# Patent US20230416345A1, “NEW TYPE II COLLAGEN BINDING PROTEINS” (Navigo Proteins GmbH, priority 2020, published 2023)
# Substitutions are numbered along the chain they refer to.
# T1: human collagen type III (Homo sapiens, UniProt P02461)
# T1 construct: purchased Abcam ab7535
# T1 sequence (P02461 154-1221 limits assumed): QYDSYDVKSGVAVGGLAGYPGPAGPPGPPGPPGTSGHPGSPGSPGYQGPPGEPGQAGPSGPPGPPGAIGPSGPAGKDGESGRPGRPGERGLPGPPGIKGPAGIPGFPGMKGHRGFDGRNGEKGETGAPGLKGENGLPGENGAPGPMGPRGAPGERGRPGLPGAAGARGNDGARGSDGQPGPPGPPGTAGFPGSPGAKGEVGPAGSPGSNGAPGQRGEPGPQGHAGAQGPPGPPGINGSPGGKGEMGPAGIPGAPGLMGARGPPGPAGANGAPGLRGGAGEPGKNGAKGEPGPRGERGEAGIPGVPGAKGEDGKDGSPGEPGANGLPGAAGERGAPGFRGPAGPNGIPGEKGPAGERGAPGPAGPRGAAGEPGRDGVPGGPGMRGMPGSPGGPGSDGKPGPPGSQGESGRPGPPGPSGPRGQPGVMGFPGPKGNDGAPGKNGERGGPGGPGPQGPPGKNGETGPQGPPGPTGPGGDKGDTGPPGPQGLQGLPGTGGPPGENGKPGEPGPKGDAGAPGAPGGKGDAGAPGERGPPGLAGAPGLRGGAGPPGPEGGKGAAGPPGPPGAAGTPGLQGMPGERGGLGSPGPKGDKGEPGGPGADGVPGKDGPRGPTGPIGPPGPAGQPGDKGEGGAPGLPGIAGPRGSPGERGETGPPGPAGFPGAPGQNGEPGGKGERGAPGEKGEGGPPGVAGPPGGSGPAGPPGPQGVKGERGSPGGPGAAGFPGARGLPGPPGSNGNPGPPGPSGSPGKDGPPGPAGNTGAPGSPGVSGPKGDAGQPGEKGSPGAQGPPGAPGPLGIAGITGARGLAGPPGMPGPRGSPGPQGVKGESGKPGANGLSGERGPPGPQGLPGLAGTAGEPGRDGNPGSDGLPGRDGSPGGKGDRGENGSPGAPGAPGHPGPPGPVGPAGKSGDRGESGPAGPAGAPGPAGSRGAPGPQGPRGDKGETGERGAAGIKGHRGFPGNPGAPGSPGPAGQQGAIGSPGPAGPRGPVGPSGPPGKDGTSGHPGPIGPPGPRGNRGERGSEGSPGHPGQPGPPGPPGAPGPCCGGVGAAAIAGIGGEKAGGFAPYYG
# B1: CID 209130: hetero-dimeric binding protein comprising SEQ ID NO: 4 and SEQ ID NO: 11 linked head-to-tail (protein)
# chain: IAAKFDEAQIAAFWEIYHLPNLTEEQRTAFIWSLYDDPSVSLEVLGEAQKLNDSQAPKIAAKFDEAQQAAFYEILHLPNLTEQQRNYFIQWLRDDPSVSPTVLGTAQQLNDSQAPK
# modifications: Col2 binding protein (dimer) 209130 (210484)
# B2: CID 211138: dimeric Type II collagen binding protein of SEQ ID NO: 34 (protein)
# chain: B1 chain with I10Y, W14Y, Y17W, T28E, W32A, Y35A
# modifications: Col2 binding protein (dimer) 211138
# B3: CID 210970: hetero-dimeric binding protein comprising SEQ ID NO: 14 (protein)
# chain: IAAKFDEAQWAAFLEIVHLPNLTEEQRLKFIYSLRDDPSVSLEVLGEAQKLNDSQAPKIAAKFDEAQQAADKEILHLPNLTEQQRNYFRQWLRDDPSVSLEVLGHAQLLNDSQAPK
# modifications: Col2 binding protein (dimer) 210970
# B4: CID 210973: heterodimer with SEQ ID NO: 14 as C-terminal monomer (protein)
# chain: B3 chain with F13D, I31R
# modifications: Col2 binding protein (dimer) 210973
# B5: CID 210971: heterodimer with SEQ ID NO: 14 as N-terminal monomer (protein)
# chain: B3 chain with I31R
# modifications: Col2 binding protein (dimer) 210971
# B6: CID 210972: heterodimer with SEQ ID NO: 14 as C-terminal monomer (protein)
# chain: B3 chain with F13D
# modifications: Col2 binding protein (dimer) 210972
# B7: CID 212705: dimer of SEQ ID NO: 15 (protein)
# chain: IAAKFDEAQQAADKEILHLPNLTEQQRNYFRQWLRDDPSVSPTVLGTAQQLNDSQAPKIAAKFDEAQQAADKEILHLPNLTEQQRNYFRQWLRDDPSVSPTVLGTAQQLNDSQAPKSAWSHPQFEK
# modifications: Col2 binding protein (dimer of SEQ ID NO: 15) (CID212705)
# Tests used:
# [1] = target: T2, recombinant human collagen type II (h Col II) (Homo sapiens, UniProt P02458); experiment: KD-determination by ELISA vs human collagen type II; format: binding
# T2 construct: purchased Chondrex CHX-20051
# T2 sequence (P02458 182-1241): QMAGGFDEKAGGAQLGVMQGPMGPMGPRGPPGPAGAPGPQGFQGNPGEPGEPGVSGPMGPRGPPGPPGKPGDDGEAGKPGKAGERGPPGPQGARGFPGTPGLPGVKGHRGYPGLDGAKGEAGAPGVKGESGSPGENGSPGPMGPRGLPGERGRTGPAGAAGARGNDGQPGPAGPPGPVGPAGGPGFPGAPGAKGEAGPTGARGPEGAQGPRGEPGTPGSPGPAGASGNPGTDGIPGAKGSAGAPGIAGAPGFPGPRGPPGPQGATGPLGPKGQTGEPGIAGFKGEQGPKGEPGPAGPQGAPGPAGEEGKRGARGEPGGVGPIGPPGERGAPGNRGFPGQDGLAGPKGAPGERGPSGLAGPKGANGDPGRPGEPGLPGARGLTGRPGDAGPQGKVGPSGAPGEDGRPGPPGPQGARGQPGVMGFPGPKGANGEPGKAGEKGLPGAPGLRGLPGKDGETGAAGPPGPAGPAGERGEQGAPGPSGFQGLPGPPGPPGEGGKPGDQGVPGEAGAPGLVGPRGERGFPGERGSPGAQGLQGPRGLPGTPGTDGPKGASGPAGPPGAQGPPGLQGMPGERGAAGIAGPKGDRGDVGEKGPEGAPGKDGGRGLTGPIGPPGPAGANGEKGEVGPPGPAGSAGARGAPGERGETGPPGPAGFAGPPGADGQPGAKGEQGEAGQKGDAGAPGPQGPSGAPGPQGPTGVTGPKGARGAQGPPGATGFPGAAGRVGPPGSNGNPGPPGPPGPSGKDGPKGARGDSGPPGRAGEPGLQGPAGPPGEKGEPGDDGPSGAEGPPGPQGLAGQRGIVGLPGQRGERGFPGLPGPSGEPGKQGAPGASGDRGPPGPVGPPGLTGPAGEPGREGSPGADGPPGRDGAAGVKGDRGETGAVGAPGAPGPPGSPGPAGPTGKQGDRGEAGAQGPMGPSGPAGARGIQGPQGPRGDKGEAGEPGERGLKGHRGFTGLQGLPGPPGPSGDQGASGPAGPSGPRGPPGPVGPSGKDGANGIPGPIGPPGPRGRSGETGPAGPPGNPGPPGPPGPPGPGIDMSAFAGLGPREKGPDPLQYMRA
# Protocol: (§1) High binding plates (Greiner, 781061) were immobilized with 2.5 μg/ml recombinant human collagen type II (h Col II, Chondrex, CHX-20051), rabbit collagen type II (rbCol II, prepared from rabbit eyes), porcine collagen type II (p Col II, prepared from porcine eyes), human collagen type I, (h Col I, Sigma, C5483-1MG), human collagen type V (h Col V, Abcam, ab7537), human collagen type III (h Col Ill, Abcam, ab7535) and 67B89 (domain of fibronectin, produced in E. coli) respectively over night at 4° C. ELISA-plates were washed 3 times with PBST (PBS+ 0.1% Tween) and blocked with 3% BSA/0.5% Tween/PBS 2 h at RT. After washing with PBST, dilution series of 1.1 μM to 7×10^−4 nM of dimers (CID 211999, CID 212000), dilution series of 100 nM to 7×10^−6 nM of tetramers (CID 212001 and CID 212704) and dilution series of 10 μM to 2 nM of dimer (CID 212705) were incubated on ELISA-plates 1 h at rt. Plates were washed with PBST and incubated with biotinylated anti-StrepTag-ab (Antikörper-online, ABIN1573895) with a dilution of 1:10.000 for 1 h at rt. The binding was visualized with a-rabbit-IgG-HRP (Sigma, A9169) with a dilution of 1:10.000 and as substrate TMB Plus von KEM EN TEC Diagnostic, Kat-Nr. 4395.
# [2] = target: T3, porcine collagen type II (p Col II) (Sus scrofa, UniProt A0A287A2Q7); experiment: KD-determination by ELISA vs porcine collagen type II; format: binding
# T3 construct: porcine collagen type II (p Col II, prepared from porcine eyes); from tissue; host or cells: porcine eyes
# T3 sequence (A0A287A2Q7 26-1486): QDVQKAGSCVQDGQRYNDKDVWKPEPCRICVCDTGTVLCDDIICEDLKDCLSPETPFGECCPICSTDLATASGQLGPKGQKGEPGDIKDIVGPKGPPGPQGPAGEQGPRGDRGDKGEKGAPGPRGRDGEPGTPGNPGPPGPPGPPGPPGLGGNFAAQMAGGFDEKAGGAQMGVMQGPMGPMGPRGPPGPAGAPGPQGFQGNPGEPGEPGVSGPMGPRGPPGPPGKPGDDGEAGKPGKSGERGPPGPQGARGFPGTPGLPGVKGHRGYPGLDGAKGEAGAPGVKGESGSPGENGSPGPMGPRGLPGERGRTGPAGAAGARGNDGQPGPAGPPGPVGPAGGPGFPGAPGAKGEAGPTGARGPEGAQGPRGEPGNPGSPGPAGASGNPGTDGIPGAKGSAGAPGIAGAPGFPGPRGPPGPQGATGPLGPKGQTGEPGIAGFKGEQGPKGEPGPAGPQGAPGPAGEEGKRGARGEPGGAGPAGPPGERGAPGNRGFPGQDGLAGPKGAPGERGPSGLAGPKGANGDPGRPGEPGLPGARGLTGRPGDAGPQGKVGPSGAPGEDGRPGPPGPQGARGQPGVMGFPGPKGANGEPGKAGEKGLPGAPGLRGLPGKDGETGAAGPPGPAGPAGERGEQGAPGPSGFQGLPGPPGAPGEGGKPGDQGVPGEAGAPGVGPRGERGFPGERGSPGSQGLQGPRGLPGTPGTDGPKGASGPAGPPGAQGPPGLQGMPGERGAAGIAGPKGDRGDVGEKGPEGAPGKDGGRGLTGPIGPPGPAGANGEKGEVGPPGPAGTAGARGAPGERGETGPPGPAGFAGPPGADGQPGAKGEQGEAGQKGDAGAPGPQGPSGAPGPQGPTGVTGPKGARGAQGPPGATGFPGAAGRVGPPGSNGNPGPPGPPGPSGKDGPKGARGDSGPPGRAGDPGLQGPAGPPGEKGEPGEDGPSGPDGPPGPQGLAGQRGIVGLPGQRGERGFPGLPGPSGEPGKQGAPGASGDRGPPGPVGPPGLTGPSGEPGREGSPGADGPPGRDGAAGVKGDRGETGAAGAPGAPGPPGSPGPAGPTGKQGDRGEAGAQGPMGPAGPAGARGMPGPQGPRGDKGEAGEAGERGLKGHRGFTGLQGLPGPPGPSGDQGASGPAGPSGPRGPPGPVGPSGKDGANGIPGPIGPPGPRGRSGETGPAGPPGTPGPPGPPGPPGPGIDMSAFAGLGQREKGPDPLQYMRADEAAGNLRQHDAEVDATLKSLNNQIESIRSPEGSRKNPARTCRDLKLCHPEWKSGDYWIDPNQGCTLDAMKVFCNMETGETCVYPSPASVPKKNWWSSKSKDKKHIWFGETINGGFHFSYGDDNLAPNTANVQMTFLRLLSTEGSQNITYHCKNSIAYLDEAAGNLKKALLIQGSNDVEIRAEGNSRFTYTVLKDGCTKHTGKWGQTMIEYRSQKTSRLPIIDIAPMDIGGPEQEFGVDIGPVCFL
# Protocol: as §1
# [3] = Soluble expression in Escherichia coli BL21(DE3); format: physicochemical; settings: expression in E. coli BL21(DE3)
# Protocol: Variants with affinity tag were expressed in Escherichia coli BL21(DE3) using a low copy plasmid system under regulation of a T7 promoter. Proteins were produced in soluble form after induction by lactose included in the medium (autoinduction medium). BL21 (DE3) competent cells were transformed with the expression plasmid, spread onto selective agar plates (kanamycin) and incubated overnight at 37° C. Precultures were inoculated from single colony in 3 ml 2×YT medium supplemented with 50 μg/ml kanamycin and cultured for 6 hours at 37° C. at 200 rpm in a conventional orbital shaker in culture tubes. […] Cultures were transferred to an orbital shaker and incubated at 30° C. and 200 rpm. Recombinant protein expression was induced by metabolizing glucose and subsequently allowing lactose to enter the cells. Cells were grown overnight for approx. 17 hours to reach a final OD600 of about 2-4. Before the harvest, the OD600 was measured, samples adjusted to 0.6/OD600 were withdrawn, pelleted and frozen at −20° C. To collect biomass cells were centrifuged at 12000×g for 15 min at 22° C. Pellets were weighed (wet weight). Cells were stored at −20° C. before processing.
# Proteins with affinity tag were purified by affinity chromatography and size exclusion. After affinity chromatography purification using Strep-Tactin Superflow high capacity cartridges (IBA Lifesciences) a size exclusion chromatography (SEC) was performed using an Äkta system and a Superdex™ 200 HiLoad 16/600 column (Cytiva). Fused variants with Aflibercept were purified via MabSelect SuRe (Cytiva) affinity chromatography followed by a size exclusion chromatography (SEC) using an Äkta system and a Superdex™ 200 HiLoad 16/600 column (Cytiva). All chromatography processing steps were carried out on AKTA systems using matrices from Cytiva. Homogenous species of all purified ligands were obtained; no aggregation was detected. Following SOS-PAGE analysis positive fractions were pooled and their protein concentrations were measured. Further analysis included SOS-PAGE, SE-HPLC and RP-HPLC. Protein concentrations were determined by absorbance measurement at 280 nm using the molar absorbent coefficient. Reversed phase chromatography (RP-HPLC) was performed using a Dionex HPLC system and a PLRP-S (5 μm, 300 Å) column (Agilent). Analytic size exclusion chromatography (SE-HPLC) was performed using a Dionex HPLC system and a Superdex200 increase 5/150 GL (Cytiva). Binding of Collagen II was evaluated by SPR measurements using a Biacore 3000 system. Purified Collagen II was obtained from Chondrex.inc and VEGF-165 was obtained from Millipore. Targets were immobilized on a CM5-Sensor via NHS/EDC chemistry (immobilization level ˜1000 RU). Binding molecules were injected at different concentration and affinity was calculated by langmuir 1:1 binding model.
# [4] = target: T4, human collagen type I (h Col I) (Homo sapiens, UniProt P02452+P08123); experiment: ELISA specificity vs human collagen type I; format: binding
# T4 construct: purchased Sigma C5483-1MG
# T4 sequence (P02452 162-1218 limits assumed): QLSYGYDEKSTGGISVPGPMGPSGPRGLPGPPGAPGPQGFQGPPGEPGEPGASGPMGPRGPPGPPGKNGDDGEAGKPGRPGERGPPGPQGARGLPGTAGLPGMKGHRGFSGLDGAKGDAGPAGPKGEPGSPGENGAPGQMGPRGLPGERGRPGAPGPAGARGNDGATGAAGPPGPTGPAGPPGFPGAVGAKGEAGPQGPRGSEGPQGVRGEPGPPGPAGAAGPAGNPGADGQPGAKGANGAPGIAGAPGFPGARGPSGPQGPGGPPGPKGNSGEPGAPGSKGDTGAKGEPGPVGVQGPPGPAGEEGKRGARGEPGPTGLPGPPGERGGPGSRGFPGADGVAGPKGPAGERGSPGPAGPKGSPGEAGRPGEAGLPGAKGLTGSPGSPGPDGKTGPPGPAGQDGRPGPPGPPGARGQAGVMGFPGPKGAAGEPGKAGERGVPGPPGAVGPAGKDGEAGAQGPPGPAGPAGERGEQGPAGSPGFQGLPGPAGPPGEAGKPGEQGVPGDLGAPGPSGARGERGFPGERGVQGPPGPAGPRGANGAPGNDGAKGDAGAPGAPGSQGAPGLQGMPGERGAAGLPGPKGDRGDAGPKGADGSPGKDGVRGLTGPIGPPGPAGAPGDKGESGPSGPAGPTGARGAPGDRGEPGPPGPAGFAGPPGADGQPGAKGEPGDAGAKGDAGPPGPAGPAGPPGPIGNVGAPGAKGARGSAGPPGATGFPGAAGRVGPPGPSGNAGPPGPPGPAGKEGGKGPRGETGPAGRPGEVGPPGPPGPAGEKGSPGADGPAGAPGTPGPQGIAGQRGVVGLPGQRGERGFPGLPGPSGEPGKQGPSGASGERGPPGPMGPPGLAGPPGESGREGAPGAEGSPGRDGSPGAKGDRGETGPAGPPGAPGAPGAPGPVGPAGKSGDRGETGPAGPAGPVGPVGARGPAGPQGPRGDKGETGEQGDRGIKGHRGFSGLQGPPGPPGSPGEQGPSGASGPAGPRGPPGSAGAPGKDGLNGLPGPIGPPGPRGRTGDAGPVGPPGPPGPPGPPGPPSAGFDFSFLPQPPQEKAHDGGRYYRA
# T4 sequence (P08123 80-1119 limits assumed): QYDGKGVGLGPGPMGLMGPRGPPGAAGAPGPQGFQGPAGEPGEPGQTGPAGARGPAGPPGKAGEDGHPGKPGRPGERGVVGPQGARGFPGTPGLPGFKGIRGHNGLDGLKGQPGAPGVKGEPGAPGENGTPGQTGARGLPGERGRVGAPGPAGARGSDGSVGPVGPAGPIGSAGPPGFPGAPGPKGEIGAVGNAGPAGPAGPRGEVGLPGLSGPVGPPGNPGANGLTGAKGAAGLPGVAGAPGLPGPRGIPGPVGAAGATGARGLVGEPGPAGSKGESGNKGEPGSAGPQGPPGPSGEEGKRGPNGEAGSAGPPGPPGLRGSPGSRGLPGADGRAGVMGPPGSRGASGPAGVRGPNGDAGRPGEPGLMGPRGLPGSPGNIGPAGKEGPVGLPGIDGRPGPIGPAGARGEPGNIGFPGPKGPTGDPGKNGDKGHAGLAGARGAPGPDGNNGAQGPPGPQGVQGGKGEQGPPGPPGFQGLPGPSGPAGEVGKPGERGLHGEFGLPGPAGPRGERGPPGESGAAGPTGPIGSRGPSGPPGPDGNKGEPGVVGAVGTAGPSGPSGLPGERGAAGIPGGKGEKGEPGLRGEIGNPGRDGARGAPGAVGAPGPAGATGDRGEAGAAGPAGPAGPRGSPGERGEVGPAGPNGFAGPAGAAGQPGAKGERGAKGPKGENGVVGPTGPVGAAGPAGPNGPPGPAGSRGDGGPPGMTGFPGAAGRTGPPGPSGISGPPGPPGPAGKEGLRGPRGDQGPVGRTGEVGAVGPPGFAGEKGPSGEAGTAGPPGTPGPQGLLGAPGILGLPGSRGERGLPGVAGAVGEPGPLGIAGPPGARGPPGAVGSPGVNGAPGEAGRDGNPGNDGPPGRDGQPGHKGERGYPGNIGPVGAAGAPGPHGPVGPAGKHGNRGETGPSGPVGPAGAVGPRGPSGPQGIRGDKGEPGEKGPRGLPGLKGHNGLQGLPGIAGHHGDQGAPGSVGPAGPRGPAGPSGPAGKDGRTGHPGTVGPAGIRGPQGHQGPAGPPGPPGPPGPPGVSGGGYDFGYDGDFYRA
# Protocol: as §1
# human collagen type III = target: T1, human collagen type III; experiment: ELISA specificity vs human collagen type III; format: binding
# Protocol: as §1
# [5] = target: T5, human collagen type V (h Col V) (Homo sapiens, UniProt P05997+P20908); experiment: ELISA specificity vs human collagen type V; format: binding
# T5 construct: purchased Abcam ab7537
# Protocol: as §1
# [6] = target: T6, 67B89 (domain of fibronectin) (Homo sapiens, UniProt P02751); experiment: ELISA specificity vs 67B89; format: binding
# T6 construct: unrelated fibronectin domain EDB (67B89) could be observed; made in house; host or cells: E. coli
# T6 sequence (P02751 1089-1540 limits assumed): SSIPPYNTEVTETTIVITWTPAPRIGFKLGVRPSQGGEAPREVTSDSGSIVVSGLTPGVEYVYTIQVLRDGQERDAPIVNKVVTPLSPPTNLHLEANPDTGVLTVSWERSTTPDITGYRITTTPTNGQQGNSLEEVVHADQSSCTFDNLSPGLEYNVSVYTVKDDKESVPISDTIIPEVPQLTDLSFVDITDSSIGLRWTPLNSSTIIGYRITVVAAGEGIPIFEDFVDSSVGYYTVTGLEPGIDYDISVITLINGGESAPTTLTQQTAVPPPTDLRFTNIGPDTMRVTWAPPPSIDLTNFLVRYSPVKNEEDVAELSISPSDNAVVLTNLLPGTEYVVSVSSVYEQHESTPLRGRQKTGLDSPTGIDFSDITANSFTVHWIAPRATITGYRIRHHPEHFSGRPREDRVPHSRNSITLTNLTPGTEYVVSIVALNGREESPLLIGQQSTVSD
# Protocol: as §1
molecule,measurement,setting,value
B1,binding affinity (KD) to human type II collagen (ELISA),[1],220 nM
same,specific binding vs porcine type II collagen (ELISA),[2],0.11 µM
same,Solubility Soluble expression,[3],90%
B2,binding affinity (KD) to human type II collagen (ELISA),[1],450 nM
same,specific binding vs porcine type II collagen (ELISA),[2],0.81 µM
same,Solubility Soluble expression,[3],95%
B3,Solubility Soluble expression,[3],90%
B4,Solubility Soluble expression,[3],90%
B5,Solubility Soluble expression,[3],60%
B6,Solubility Soluble expression,[3],70%
B7,"binding affinity (KD) to type II collagen by ELISA, in words","[1]; type II collagen, tetramers: of different species",1-2-digit nM
same,binding to type I collagen (ELISA),[4],No unspecific binding
same,binding to type III collagen (ELISA),human collagen type III,No unspecific binding
same,binding to type V collagen (ELISA),[5],No unspecific binding
same,binding to domain of fibronectin (67B89) (ELISA),[6],No unspecific binding
same,Solubility Soluble expression,[3],100%
